Measurements published in PubChem BioAssay AID485344 (National Center for Advancing Translational Sciences (NCATS), 2010).
Among all 340,000 compounds or so, about 6,900 (2%) were called active. No stated cut-off is given here; in the data, active means inhibition above about 30%; inactive means below that, where a call was filed. The list shows a part of the results, in another mix than the full data. Entries without a call were filed so in the source.

Target: D(2) dopamine receptor (Homo sapiens) (UniProt P14416)
Experiment: HTS Assay for Allosteric Antagonists of the Human D2 Dopamine Receptor: Primary Screen for Antagonists; further: 0% is about no effect
Settings: HEK293 TREx D2 cells, calcium flux, dopamine EC80; at 10 µM; stronger effect = higher value
In short: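 Overnight-induced (tetracycline, 30 C) HEK293 T-REx cells carrying force-coupled D2 receive a no-wash calcium dye, then compound, then EC80 dopamine at 180 s; signals are read kinetically throughout.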

Sequence of UniProt P14416 (P14416 whole entry, looked up): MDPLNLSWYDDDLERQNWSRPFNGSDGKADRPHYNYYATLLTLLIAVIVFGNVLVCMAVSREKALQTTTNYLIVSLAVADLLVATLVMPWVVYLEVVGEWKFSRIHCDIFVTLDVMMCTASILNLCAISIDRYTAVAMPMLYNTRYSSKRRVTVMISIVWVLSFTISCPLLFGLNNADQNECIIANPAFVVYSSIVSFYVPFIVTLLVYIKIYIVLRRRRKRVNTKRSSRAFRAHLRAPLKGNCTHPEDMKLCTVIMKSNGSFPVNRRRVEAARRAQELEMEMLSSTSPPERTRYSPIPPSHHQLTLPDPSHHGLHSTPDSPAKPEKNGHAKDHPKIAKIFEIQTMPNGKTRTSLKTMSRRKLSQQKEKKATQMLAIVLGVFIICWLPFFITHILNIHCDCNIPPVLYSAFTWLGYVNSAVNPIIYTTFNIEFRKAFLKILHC

| Structure (SMILES) | inhibition |
| --- | --- |
| COc1ccc(CSc2nc3ccncc3n2Cc2nc(-c3ccc(OC)c(OC)c3)oc2C)cc1 | 12.6% |
| CCOC(=O)CSc1nc2c([nH]c3ccccc32)c(=O)n1-c1ccc(OCC)cc1 | 0.499% |
| Cc1ccccc1C(=O)Nc1nc2c(s1)CC(C(C)(C)C)CC2 (stereo not given) | -2.7% |
| COc1ccc2c(c1)c1c(c(=O)n(-c3cccc(Cl)c3)c(=O)n1C)n2C | 5.59% |
| CCOC(=O)c1c(-c2ccccc2)oc2ccc(NS(=O)(=O)c3ccccc3)cc12 | 6.08% |
| COc1ccc(S(=O)(=O)NCc2cccn2Cc2cccc(C)c2)cc1OC | 8.15% |
| CCN(C(=O)CSc1nnc(C)n2c1cc1occc12)c1ccccc1 | 19.5% |
| Cc1cc([N+](=O)[O-])ccc1NC(=O)CSc1nccn1C | 15.4% |
| COc1ccc(CNC(=O)c2cnc(N3CCCC3)nc2C)cc1 | -1.08% |
| O=C(CSc1cn(CC(=O)N2CCOCC2)c2ccccc12)Nc1ccccc1C(F)(F)F | -9.39% |
| Cc1cccc(NC(=O)CSc2nc(=O)n(CCN3CCOCC3)c3c2CCC3)c1C | 5.22% |
| Cc1cccc(Cn2nnc3c(=O)[nH]c(C4CCN(C(=O)c5ccccc5F)CC4)nc32)c1 | 2.67% |
| CCCC(=O)NCc1nc2cccnc2n1Cc1ccc(F)cc1 | -6.5% |
| CCOC(=O)c1ccc(NC(=O)Cc2coc3cc(C)cc(C)c23)cc1 | 6.75% |
| Cc1ccc(NC(=O)Cn2c(=O)n(Cc3ccc4c(c3)OCO4)c(=O)c3ccc(C(=O)NC4CCCCC4)cc32)cc1 | 2.09% |
| O=C(Nc1cc(-c2nc3ccccc3o2)ccc1Cl)c1cccc2c(Cl)cccc12 | -6.62% |
| Cc1ccc2[nH]c3c(c2c1)CN(C)CC3 | active: 31.1% |
| O=C(COC(=O)/C=C/c1ccc(Cl)cc1)NC(=O)NCc1ccccc1 | active: 44.2% |
| Cc1ccc(CNC(=O)C(=O)NCC(c2cccs2)S(=O)(=O)c2ccccc2)cc1 (stereo not given) | -0.663% |
| CCCn1c(=N)c(C(=O)NCc2ccccc2)cc2c(=O)n3cccc(C)c3nc21 | -1.37% |
| N#C/C(=C\c1ccc(-c2ccc(Br)cc2)o1)C(=O)Nc1ccccc1O | 6% |
| Cc1ccc(-n2ncc3c(N4CCN(Cc5ccccc5)CC4)ncnc32)cc1C | 14.4% |
| S=c1[nH]c(-c2ccccc2)cn1/N=C/c1cccc2ccccc12 | active: 33% |
| Cc1oc(-c2ccccc2F)nc1Cn1c(SCc2cccc(Cl)c2)nc2ccncc21 | -5.21% |

| Structure (SMILES) | inhibition |
| --- | --- |
| O=c1c2c(nc3cc(-c4ccc(Br)cc4)[nH]n13)CCCC2 | active: 54.1% |
| O=C(NCCc1csc(-c2ccc(C(F)(F)F)cc2)n1)c1ccccc1Cl | 1.38% |
| Cc1cccc(OCC(=O)Nc2ccc(S(=O)(=O)N(Cc3ccccc3)c3ccccc3)cc2)c1 | -9.15% |
| COC(=O)c1ccccc1NC(=O)C1CCCN(C(=O)c2cnn(-c3ccc(F)cc3)c2-n2cccc2)C1 (stereo not given) | 10.5% |
| CCc1nn(CC(=O)NCC(C)c2ccccc2)c(=O)c2cc3c(OC)cccc3n12 (stereo not given) | 2.91% |
| COCCn1c(=O)[nH]c2cc(C(=O)N3CCN(c4ccc(F)cc4)CC3)ccc2c1=O | -13.6% |
| Cn1c(-c2nonc2NC(=O)c2ccc(C(C)(C)C)cc2)nc2ccccc21 | active: 44.2% |
| Cc1cc(Br)cc(C)c1OCC(=O)Nc1ccc(S(=O)(=O)Nc2ncccn2)cc1 | 12% |
| CCN1c2ccccc2-c2nc(SCC(=O)Nc3cc(C)c(Cl)cc3OC)ncc2S1(=O)=O | 9.11% |
| O=C(COc1ccc(F)cc1)NCc1ccc2c(c1)CCN2C(=O)c1ccc(F)cc1 | -2.19% |
| Cc1ccc(C)c(N2CCN(c3nc4ccccc4n4nnnc34)CC2)c1 | 6.46% |
| COc1ccc(CCNC(=O)c2c3c(nc4ccccc24)C(=O)N(C2CCCCC2)C3)cc1OC | 5.76% |
| O=C(Nc1ccc(F)c(Cl)c1)C1CCN(c2ncccn2)CC1 | -21.5% |
| Nc1ncc(S(=O)(=O)N2CCN(c3ccccc3)CC2)cn1 | 9.37% |
| COc1ccccc1C(=O)Nc1ccnn1C1CCN(Cc2csc(C(C)=O)c2)CC1 | active: 31.7% |
| COC(=O)CC1Oc2ccc(Cl)cc2-n2cc(-c3ccc(C)cc3)nc21 (stereo not given) | 14.2% |
| O=C(CSc1nc2c([nH]c3ccccc32)c(=O)n1-c1ccc(F)cc1)Nc1ccc2c(c1)OCO2 | -26.6% |
| Cc1ccc(S(=O)(=O)C(CNC(=O)C(=O)NCCc2ccc(F)cc2)c2cccs2)cc1 (stereo not given) | -8.04% |
| COc1cc(NC(=O)CSc2ccc(-c3sc(C)nc3C)nn2)cc(OC)c1 | -10.7% |
| COc1ccc(N2CCN(C(=O)c3ccc(CS(=O)c4cccc(C)c4)o3)CC2)cc1 (stereo not given) | -3.72% |
| COc1ccc(Cl)cc1NC(=O)c1oc2ccc(S(=O)(=O)N3CCCCC3)cc2c1C | 5.83% |
| CCCOc1ccc(C(=O)Nc2cccc(NC(=O)c3ccc(Cl)cc3Cl)c2)cc1 | 4.46% |
| CC(=O)N1CCc2cc(CNS(=O)(=O)c3ccccc3C(F)(F)F)ccc21 | -0.788% |
| Cc1nn(CC(=O)NCc2ccco2)c(=O)c2nn(-c3ccccc3)c(C)c12 | -3.82% |

| Structure (SMILES) | inhibition |
| --- | --- |
| CCOc1cccc(C2Oc3nc(SC)nnc3-c3ccccc3N2C(C)=O)c1OC (stereo not given) | 10.3% |
| O=C(CSc1nc2ccccc2n1Cc1cccc(C(F)(F)F)c1)NCc1ccccc1 | 5.82% |
| Cc1cc(C)cc(NC(=O)Cn2c(C)cc(C)c(C#N)c2=O)c1 | -7.45% |
| O=C(O)c1ccc(CSc2nc3cccnc3n2Cc2cccc(F)c2)cc1 | -5.21% |
| CC(=O)Nc1ccc(NC(=O)c2c(-c3ccccc3)noc2C)cc1 | 15.8% |
| CCNC(=S)NNC(=O)c1ccccc1OC(F)F | active: 32.7% |
| COc1ccc(-n2cnc3cc(C(=O)NCCC4=CCCCC4)ccc32)cc1 | -21.5% |
| COC(=O)c1ccccc1NC(=O)Cc1nc(-c2ccc(OC)cc2)no1 | -0.92% |
| Cc1csc2nc(COC(=O)c3ccc(NC(=O)c4ccccc4Br)cc3)cc(=O)n12 | -25.8% |
| COc1ccc(OC)c(NC(=O)CN(c2ccccc2OC)S(=O)(=O)c2ccc(C)cc2)c1 | -10.9% |
| O=C(Nc1cccc(C(=O)OCc2cc(=O)n3ccsc3n2)c1)c1ccc(F)cc1 | 10.5% |
| Cc1nc2nc(SCC(=O)NCCc3ccc(Cl)cc3)nn2c(C)c1Cc1c(F)cccc1Cl | 13.6% |
| CCOCCCNC(=O)CCC(=O)NNc1nc2ccccc2c2nc(C)nn12 | -1.47% |
| CCN(c1ccc(C)cc1C)S(=O)(=O)c1nnc(NC(=O)c2ccc(F)cc2)s1 | 16.8% |
| CCN(Cc1ccccc1)C(=O)CN1C(=O)COc2ccc(S(=O)(=O)N3CCOCC3)cc21 | -7.42% |
| O=C(NCCCN1CCN(c2ccccc2)CC1)C1CCCN(c2ncnc3c2nc2n3CCCCC2)C1 (stereo not given) | active: 59.5% |
| Cc1ccc2oc(=O)c(-c3nc(-c4cccs4)no3)cc2c1 | 6.79% |
| CC(C)n1ncc2c(C(=O)N3CCN(Cc4ccc(Br)s4)CC3)cc(C3CC3)nc21 | active: 70.3% |
| COc1cccc(-c2cc(C(=O)Nc3ccc(OC)cc3OC)no2)c1 | 22.7% |
| CCOc1ccccc1NC(=O)Cn1c(=O)n(-c2ccc(C)c(C)c2)c(=O)c2c(C)c(C(=O)N(C)C)sc21 | 6.59% |
| COc1cccc(-c2nnc(SCC(=O)N3CCc4ccccc43)o2)c1 | -7.46% |
| Cc1cc2c(cc1C)NC(CC(=O)Nc1cccc(C)c1C)C(=O)N2 (stereo not given) | 11.1% |
| CCS(=O)(=O)c1c(S(=O)(=O)CC)c2cc(C(C)(C)C)ccn2c1C(=O)c1ccc(F)cc1 | 11.6% |
| O=C(NCc1ccc(Cl)cc1)C(=O)NCC(c1cccnc1)N1CCN(c2ccccc2)CC1 (stereo not given) | 12.9% |

| Structure (SMILES) | inhibition |
| --- | --- |
| COc1cc(Cl)c(C)cc1NC(=O)Cn1cnc2sc(C)c(S(=O)(=O)N3CCCCC3)c2c1=O | 7.25% |
| Clc1ccc(Nc2ncnc3ccc(Br)cc23)cc1 | active: 34.2% |
| Cc1noc(NS(=O)(=O)c2ccc(NC(=O)COc3ccccc3Br)cc2)c1C | -1.8% |
| CCOc1ccccc1NC(=O)Nc1ccccc1OCc1cc(=O)n2ccccc2n1 | 2.03% |
| Cc1ccc(CCNC(=O)c2ccc(CS(=O)(=O)Cc3ccc(Cl)cc3)o2)cc1 | -8.28% |
| CCOC(=O)c1scc(-c2ccc(C)cc2)c1S(=O)(=O)Nc1cc(C)ccc1C | 18.3% |
| CCOC(=O)c1ccccc1NC(=O)CN(c1cc(C(F)(F)F)ccc1Cl)S(C)(=O)=O | -3.39% |
| COc1cccc(NC(=O)Cn2c(=O)c3cccn3c3ccc(F)cc32)c1 | -0.152% |
| O=S(=O)(c1ccccc1)n1nc(-c2ccc(Cl)cc2)nc1NCc1ccc(F)cc1 | 3.55% |
| Cc1ccc(-c2noc(CN(C(=O)c3ccc(C(C)(C)C)cc3)C(C)C)n2)cc1 | -8.2% |
| COc1cccc(-c2nc(SCC(=O)NCc3ccccc3)c3c(=O)n(C)c(=O)n(C)c3n2)c1 | -14.6% |
| CCCCSCCCNC(=O)c1cn(CC)c2ccc(S(=O)(=O)N(C)C3CCCCC3)cc2c1=O | -15.7% |
| COc1cccc(N2CCN(S(=O)(=O)c3ccc(-c4cc(C(F)(F)F)on4)s3)CC2)c1 | -3.09% |
| Cc1ccc(CCNC(=O)CCS(=O)(=O)c2ccc3c(c2)oc(=O)n3C)cc1 | -0.913% |
| O=C(Cn1ccc2cc(S(=O)(=O)N3CCCCCC3)ccc21)NCCc1ccccc1Cl | -13.9% |
| COc1ccc(-c2nc(CN3CCN(c4ccccc4OC)CC3)c(C)o2)cc1 | active: 98.5% |
| COc1ccc(C2CC(=O)N(Cc3cccc(C)c3)c3c2c(C)nn3-c2nc(C)cc(C)n2)c(OC)c1 (stereo not given) | 10.8% |
| COC(=O)c1sc2cccc(F)c2c1S(=O)(=O)NCc1ccc(F)cc1 | 11.4% |
| CCOC(=O)c1cnc2c(Cl)c(Cl)ccc2c1Nc1ccc(N(C)C)cc1 | -20.6% |
| Cc1ccccc1-n1c(=O)c2ccccc2n(Cc2ccc(F)cc2)c1=O | 4.56% |
| COc1ccc(-n2c(=O)c3c4c(sc3n(Cc3c(F)cccc3Cl)c2=O)CN(C(C)=O)CC4)cc1OC | 7.84% |
| O=C(Nc1ccc(F)cc1)c1ncn(-c2ccccc2)n1 | -2.09% |
| CSc1ccc(CCNC(=O)CN2C(=O)COc3ccc(S(=O)(=O)N4CCCC4)cc32)cc1 | 4.18% |
